According to patent publication US20210032314:

Legend:
[1] = target: native A1AT (Zemaira®), purified natively glycosylated alpha-1 antitrypsin preparation, P01009
[2] = target: recombinant human alpha-1 antitrypsin glycoprotein with non-native glycosylation (rA1AT)

Chain of native A1AT (Zemaira®), purified natively glycosylated alpha-1 antitrypsin preparation, P01009 (P01009 whole entry, looked up): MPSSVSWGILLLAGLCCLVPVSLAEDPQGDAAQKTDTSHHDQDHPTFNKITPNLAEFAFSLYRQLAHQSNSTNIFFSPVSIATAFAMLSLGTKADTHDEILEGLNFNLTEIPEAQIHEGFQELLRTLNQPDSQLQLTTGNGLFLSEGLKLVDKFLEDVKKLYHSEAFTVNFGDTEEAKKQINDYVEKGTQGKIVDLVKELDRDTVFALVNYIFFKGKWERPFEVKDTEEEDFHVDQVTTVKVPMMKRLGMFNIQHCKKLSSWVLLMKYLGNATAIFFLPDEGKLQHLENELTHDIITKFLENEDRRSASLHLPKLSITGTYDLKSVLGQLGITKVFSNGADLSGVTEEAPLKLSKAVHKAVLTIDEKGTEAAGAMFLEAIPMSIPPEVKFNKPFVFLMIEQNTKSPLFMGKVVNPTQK

B1: Elastase (protein)
chain: VVGGTEAQRNSWPSQISLQYRSGSSWAHTCGGTLIRQNWVMTAAHCVDRELTFRVVVGEHNLNQNDGTEQYVGVQKIVVHPYWNTDDVAAGYDIALLRLAQSVTLNSYVQLGVLPRAGTILANNSPCYITGWGLTRTNGQLAQTLQQAYLPTVDYAICSSSSYWGSTVKNSMVCAGGDGVRSGCQGDSGGPLHCLVNGQYAVHGVTSFVSRLGCNVTRKPTVFTRVSAYISWINNVIASN
- elastase activity (N-succinyl-Ala-Ala-Ala-p-nitroanilide substrate, 405 nm) [1]: native A1AT (Zemaira®) inhibited Elastase activity approximately 30% more than did recombinant rA1AT glycoprotein
- elastase activity (N-succinyl-Ala-Ala-Ala-p-nitroanilide substrate, 405 nm) [2]: native A1AT (Zemaira®) inhibited Elastase activity approximately 30% more than did recombinant rA1AT glycoprotein
